# In the supplement of paper PMC9446081:
# In all, about 39,000 compounds went through this assay and about 220 (0.56%) showed activity. The list shows a part of the results.
# Test system: Escherichia coli K-12 BW25113
# Test: relative growth (OD600 normalised to plate interquartile mean) (fraction); higher = less growth inhibition, active = 0.2 or less
# Conditions: 50 µM; LB; incubation time: overnight (16-24 h)
# 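Also: static incubation at 37 °C against the wild-type strain, values averaged over two biological replicates.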
row,Structure (SMILES),relative growth
1,CC12CCC(O)CC1=CCC1C2CCC2(C)C(c3cccnc3)=CCC12 (configuration not stated),inactive: 0.956
2,COc1ccc(S(=O)(=O)Nc2ccc3c(c2)C(=O)N([C@H](C)CO)C[C@H](C)[C@@H](CN(C)Cc2ccc(Cl)c(Cl)c2)OCCCC[C@@H](C)O3)cc1,inactive: 1.02
3,Cc1noc(C)c1S(=O)(=O)Nc1ccc2c(c1)CC(=O)N([C@@H](C)CO)C[C@H](C)[C@@H](CN(C)S(=O)(=O)c1ccccc1)O2,inactive: 0.973
4,C[C@H](CO)N1C[C@H](C)[C@H](CN(C)S(=O)(=O)c2cn(C)cn2)OCCCC[C@H](C)Oc2ccc(NS(=O)(=O)c3ccccc3)cc2C1=O,inactive: 0.99
5,O=C(CN1CCOCC1)NCC[C@@H]1CC[C@@H](NC(=O)c2ccccc2F)[C@H](CO)O1,inactive: 0.994
6,C[C@@H]1CN([C@@H](C)CO)C(=O)Cc2cc(NC(=O)Nc3cccc4ccccc34)ccc2O[C@H]1CN(C)Cc1ccncc1,inactive: 1.01
7,C[C@@H]1CCCCO[C@H](CN(C)S(=O)(=O)c2ccccc2)[C@@H](C)CN([C@@H](C)CO)C(=O)c2cc(NC(=O)Nc3ccc(C(F)(F)F)cc3)ccc2O1,inactive: 0.982
8,Cc1ccc2nc(Nc3ccccc3)nc(-c3ccccc3)c2c1,inactive: 0.927
9,NC(=O)NC(=O)Cc1ccccc1,inactive: 1.07
10,CCOC(=O)Cc1c(C)[nH]c(=O)[nH]c1=O,inactive: 1.05
11,C[C@@H]1CCCCO[C@H](CN(C)Cc2ccc(C(=O)O)cc2)[C@@H](C)CN([C@@H](C)CO)C(=O)c2cc(NC(=O)C3CCCCC3)ccc2O1,inactive: 1
12,C[C@H]1CCCCO[C@@H](CN(C)S(=O)(=O)c2cccs2)[C@@H](C)CN([C@@H](C)CO)C(=O)c2cc(NS(=O)(=O)c3cn(C)cn3)ccc2O1,inactive: 0.987
13,C[C@@H]1CN([C@H](C)CO)C(=O)c2cccc(NC(=O)Nc3ccc(C(F)(F)F)cc3)c2O[C@H]1CN(C)Cc1ccc(Oc2ccccc2)cc1,inactive: 0.967
14,CN(C)C(=O)c1cccc(-c2ccc3n(c2=O)C[C@@H]2[C@@H](CO)[C@H](C(=O)NCC4CC4)N[C@H]32)c1,inactive: 0.96
15,C[C@H]1CN([C@@H](C)CO)C(=O)c2ccccc2-c2ccccc2CO[C@@H]1CN(C)Cc1ccccc1C(F)(F)F,inactive: 1.1
16,CCOC(=O)[C@H]1[C@@H]2[C@@H](Cc3ccccc3N)[C@@H](C(=O)OCC)N(c3ccc(OC)cc3)C(=O)[C@@]23C=C[C@@H]1O3,inactive: 1.02
17,C[C@@H]1CN([C@H](C)CO)C(=O)c2cccc(NS(C)(=O)=O)c2O[C@@H]1CN(C)C(=O)Nc1ccc2c(c1)OCO2,inactive: 1.03
18,C[C@H](CO)N1C[C@H](C)[C@H](CN(C)C(=O)Nc2cccc3ccccc23)Oc2c(NC(=O)Nc3ccccc3)cccc2C1=O,inactive: 1.02
19,Cc1noc(C)c1S(=O)(=O)Nc1cccc2c1O[C@@H](CN(C)C(=O)NC(C)C)[C@@H](C)CN([C@H](C)CO)C2=O,inactive: 0.982

row,Structure (SMILES),relative growth
1,Cc1ccc(S(=O)(=O)Nc2ccc3c(c2)C(=O)N([C@@H](C)CO)C[C@H](C)[C@H](CN(C)S(=O)(=O)c2ccc(Cl)cc2)OCCCC[C@@H](C)O3)cc1,inactive: 1.02
2,CNC(=O)CN1CCOC[C@]2(CCCN(C(=O)c3ccn(C)n3)C2)C1,inactive: 0.99
3,C[C@@H]1CCCCO[C@H](CN(C)Cc2ccc(Cl)c(Cl)c2)[C@H](C)CN([C@@H](C)CO)C(=O)c2cc(NC(=O)Nc3ccc(C(F)(F)F)cc3)ccc2O1,inactive: 1.03
4,O=C(C[C@@H]1CC=CC[C@H](NC(=O)OCC2c3ccccc3-c3ccccc32)C(=O)OC[C@H](Cc2ccccc2)NC1=O)N[C@H](CO)Cc1ccccc1,inactive: 0.961
5,CO[C@@H]1CN(C)C(=O)c2cc(NC(=O)Nc3ccc(Cl)cc3)ccc2OC[C@@H](C)N(C(=O)Nc2c(C)noc2C)C[C@H]1C,inactive: 1
6,C[C@H]1CN([C@@H](C)CO)S(=O)(=O)c2ccc(C#CC3CC3)cc2O[C@H]1CN(C)Cc1ccccc1F,inactive: 1.02
7,C/C=C/c1ccc2c(c1)O[C@@H](CN(C)S(=O)(=O)c1ccc(C)cc1)[C@@H](C)CN([C@H](C)CO)S2(=O)=O,inactive: 1.01
8,CCC[C@@H](O)C#Cc1cnc2c(c1)C(=O)N([C@H](C)CO)C[C@H](C)[C@H](CN(C)S(=O)(=O)c1ccc(OC)cc1)O2,inactive: 1.03
9,Cn1cnc(S(=O)(=O)N2C[C@@H](O)COC[C@H]3O[C@H](CC(=O)NCc4cccc(F)c4)CC[C@@H]32)c1,inactive: 0.98
10,O=C(C[C@@H]1CC[C@H]2[C@@H](COC[C@@H](O)CN2S(=O)(=O)c2ccccc2)O1)NCc1ccc2c(c1)OCO2,inactive: 0.964
11,COc1ccc(-c2ccc3c(c2)O[C@@H](CN(C)CC2CCOCC2)[C@@H](C)CN([C@H](C)CO)S3(=O)=O)cc1,inactive: 0.976
12,Cc1ccc(S(=O)(=O)Nc2ccc3c(c2)CC(=O)N([C@H](C)CO)C[C@@H](C)[C@H](CN(C)C(=O)Nc2ccc(C(F)(F)F)cc2)O3)cc1,inactive: 0.991
13,C[C@H]1CN([C@@H](C)CO)C(=O)c2cc(NC(=O)Nc3cccc4ccccc34)ccc2O[C@H]1CN(C)S(=O)(=O)c1ccc(F)cc1,inactive: 1.05
14,CN(C)C(=O)c1ccc(-c2cccc(-c3nc(C(=O)NC4CCCC4)cc4c3[C@H](CCO)N([S@@](=O)C(C)(C)C)C4)c2)cc1,inactive: 0.991
15,COc1cccc(S(=O)(=O)N[C@@H]2CC[C@H](CC(=O)NC3CCC3)O[C@H]2CO)c1,inactive: 0.992
16,O=C(C[C@@H]1C=C[C@H](NC(=O)Nc2cc(F)ccc2F)[C@@H](CO)O1)NCCCN1CCOCC1,inactive: 1.02
17,C[C@@H]1CCCCO[C@@H](CN(C)C(=O)NC2CCCCC2)[C@H](C)CN([C@@H](C)CO)C(=O)c2cc(NC(=O)Nc3ccc(F)cc3)ccc2O1,inactive: 1.04
18,COc1ccc(C#Cc2ccc3c(c2)[C@]2(C(=O)N3)[C@H](C(=O)N3CCc4cc(OC)c(OC)cc4C3)[C@H]3C(=O)O[C@H](c4ccccc4)[C@H](c4ccccc4)N3[C@@H]2c2ccc(OCCO)cc2)cc1,inactive: 1.08
